PubChem BioAssay AID463173 (ICCB-Longwood Screening Facility, Harvard Medical School, 2010)
About 1,700 (3.3%) of roughly 52,000 compounds were called active. Cut-off read from the data, not from the text of the source: active = survival mostly below about 52% (no sharp cut-off); inactive = mostly above about 56%. This is one part of the list.

The molecules below were run on Wild type (assay: S. aureus survival, RN4220 and DeltatarO strains – OD600, teichoic acid synthesis inhibitors, primary screen (AID 463173)). Conditions: S. aureus RN4220 wild type/DeltatarO growth, OD600, 18 h, hits give low values, screened at 18.75 µg/mL (by protocol).
With CC1SC(c2ccccc2)N(Cc2ccccc2)C1=O (stereo unspecified) the survival was inactive: 122%. With Cc1cccc(CN2CCC(C(=O)N3CCC(C)CC3)CC2)c1 the survival was inactive: 102%. In the case of CCCCCc1ccc(-c2ccc(C(=O)Oc3ccc(C(=O)OC)cc3)cc2)nc1, the survival is reported as inactive: 74%. With COc1ccccc1Nc1c2c(nc3ccc(NC(=O)/C=C/c4cc(OC)c(OC)c(OC)c4)cc13)CCCC2 the survival was inactive: 91%. For CC(C)c1ccc(NC(=O)C2Cc3ccccc3N2C(=O)c2ccccc2)cc1 (stereo unspecified), the survival was inactive: 97%. In the case of COc1ccc(CNc2nc(-c3ccc(Cl)cc3)nn2C(=O)c2ccccc2)cc1, the survival is reported as inactive: 37%. In the case of CC(C)CCn1nnnc1CN1CCN(C(=O)c2ccco2)CC1, the survival is reported as inactive: 107%. With C/C(=N\NC(=O)c1ccc(N)cc1)C(C)(C)C the survival was inactive: 109%. With O=C(NCCN1CCCC1)c1ccc(Cl)cc1 the survival was inactive: 97%. In the case of COc1ccccc1CNC(=O)c1ccc(CSc2nc3ccncc3n2Cc2ccccc2C)cc1, the survival is reported as inactive: 83%. Cc1ccc(S(=O)(=O)C2(C(=O)Nc3ccc(C(C)C)cc3)CC2)cc1 was tested, and the survival was inactive: 64%. Cc1ccc(-n2ncc(C(=O)N3CCN(c4ncccn4)CC3)c2C2CCN(C(=O)OC(C)(C)C)CC2)cc1 was tested, and the survival was inactive: 71%. For Cc1cc(C)cc(N2C(=O)CS(=O)(=O)C23C(=O)N(C)c2ccccc23)c1 (stereo unspecified), the survival was inactive: 81%. In the case of Cc1nc(-c2ccc(S(=O)(=O)N(C)Cc3ccccc3)cc2)co1, the survival is reported as inactive: 74%. CCn1c2ccccc2c2nnc(N3CCN(c4ccc(OC)cc4)CC3)nc21 was tested, and the survival was inactive: 85%. For COc1ccc(-c2cc(C(F)(F)F)nc(SCCC(=O)Nc3ccc(O)cc3)n2)cc1, the survival was inactive: 76%. In the case of CCOC(=O)Cn1nc(C)c(NC(=O)COc2ccc(C)c(C)c2)c1C, the survival is reported as inactive: 76%. In the case of CCN(CC)C(=O)CSc1cn(CC(=O)N2CCCCCC2)c2ccccc12, the survival is reported as inactive: 99%. For Cc1ccc(NC(=O)C2CCN(c3nc4ccccc4nc3C(F)(F)F)CC2)cc1C, the survival was inactive: 81%. With CCCN(CCC)S(=O)(=O)c1ccc(N2CCCCS2(=O)=O)cc1 the survival was inactive: 72%. With CCOc1ccc(-n2cc(-c3ccccc3)c3c(NCc4ccc(F)cc4)ncnc32)cc1 the survival was inactive: 66%. With CCC1(c2ccccc2)NC(=O)NC1=O (stereo unspecified) the survival was inactive: 99%. For Cc1ccc(C)c(NC(=O)CSc2ncc3c(n2)-c2ccccc2N(Cc2ccccc2C)S3(=O)=O)c1, the survival was inactive: 76%. With COc1ccc(/C=C/c2nc(C#N)c(N3CCCCCC3)o2)cc1OC the survival was inactive: 73%. With Nc1ccc(Cc2ccccc2)cc1 the survival was inactive: 112%. In the case of O=C(Cn1cc(S(=O)(=O)c2ccc(Cl)cc2)c(=O)c2ccccc21)Nc1ccc2c(c1)OCO2, the survival is reported as inactive: 66%. O=C1OC(C(=O)O)Cc2ccccc21 (stereo unspecified) was tested, and the survival was inactive: 102%. With Fc1ccc([C@@H]2Nc3ccccc3[C@@H]3C=CC[C@@H]32)cc1 the survival was inactive: 88%. With Cc1ccc(C)c(Nc2ncnc3c2cnn3-c2ccc(F)cc2)c1 the survival was active: -3%. COc1ccc(C)cc1NS(=O)(=O)c1ccc(-c2cnc(C3CC3)o2)cc1 was tested, and the survival was inactive: 68%. For COc1ccc(CNS(=O)(=O)c2ccc3c(c2)NC(=O)C(C)C(=O)N3)cc1 (stereo unspecified), the survival was inactive: 93%. In the case of Cc1nnc(N2CCC(C(=O)N3CCCCC3)CC2)c2nn(-c3ccccc3)c(C)c12, the survival is reported as inactive: 140%. For Cc1ccc(C)c(S(=O)(=O)Nc2ccc3c(c2)CCCN3C(=O)c2cccs2)c1, the survival was inactive: 60%. In the case of O=C(N1CCOCC1)N1CCN(S(=O)(=O)c2ccccc2)C1, the survival is reported as inactive: 87%. With COc1cc(NC(=O)Cn2c(=O)n(Cc3ccccc3Cl)c(=O)c3cc(OC)c(OC)cc32)cc(OC)c1 the survival was inactive: 71%. For COc1ccc(CNc2n[nH]c(-c3ccco3)n2)cc1OC, the survival was inactive: 85%. In the case of CCc1ccc(Nc2ncnc3sc4c(c23)CCCC4)cc1, the survival is reported as inactive: 68%. In the case of O=C(NCCc1ccccc1)c1cc(-c2cccc(Cl)c2)on1, the survival is reported as inactive: 87%. In the case of COc1ccc(CCN2C(=O)N(c3ccc(F)cc3)C(=O)C2CC(=O)Nc2ccccc2)cc1OC (stereo unspecified), the survival is reported as inactive: 73%. For CCCN(C(=O)c1cc2c(=O)n(CC)c3ccccc3c2s1)c1ccccc1F, the survival was inactive: 74%. With CCCc1c(C(=O)OCC)nnc2c(-c3ccccc3)c(C)nn12 the survival was inactive: 65%. For COc1cc(NC(=O)c2cc3nc(-c4ccc(C)cc4)cc(C(F)(F)F)n3n2)cc(OC)c1OC, the survival was inactive: 53%. COc1ccc(C2c3c(n(C)c4ccccc34)C(=O)N2CC(=O)Nc2ccccc2Cl)cc1 (stereo unspecified) was tested, and the survival was inactive: 135%. In the case of O=C(c1ccc(Nc2nc3ccccc3n3nnnc23)cc1)N1CCN(c2ccc(F)cc2)CC1, the survival is reported as inactive: 76%. In the case of CCc1ccc(NC(=O)c2cc(S(=O)(=O)N3CCCCC3)c[nH]2)cc1, the survival is reported as inactive: 121%. With COc1ccc(CCNC(=O)c2cnc3sc(N4CCOCC4)nn3c2=O)cc1OC the survival was inactive: 84%. For COc1ccc(OCc2ccc(-c3nc(C#N)c(N4CCC(C(N)=O)CC4)o3)o2)cc1, the survival was inactive: 109%. Cc1ccc(CNC(=O)c2nnn(Cc3ccc(F)cc3)c2N)cc1 was tested, and the survival was inactive: 87%. O=S(=O)(Nc1ccc(F)cc1F)c1ccc(Br)s1 was tested, and the survival was inactive: 50%. With COc1ccc(CCNC(=O)c2c[nH]n3c(=O)c(Cc4ccccc4Cl)c(C)nc23)cc1OC the survival was active: 0%. In the case of O=C(Nc1cc(-c2nc3cc(Cl)ccc3o2)ccc1Cl)c1cccc2ccccc12, the survival is reported as inactive: 69%. In the case of CCn1c2c(c(=O)n3ncc(C(=O)Nc4ccc(OC(F)(F)F)cc4)c13)CN(Cc1ccc(OC)cc1)CC2, the survival is reported as inactive: 83%. Cc1ccc2c(c1)cc1c(=O)n(CC(=O)NC(C)CCc3ccccc3)nc(C)n12 (stereo unspecified) was tested, and the survival was inactive: 87%. In the case of CC1CCN(c2ccc(-c3cccc(NS(=O)(=O)c4cccs4)c3)nn2)CC1, the survival is reported as inactive: 67%. For O=C(NCc1cccs1)c1ccc(CSc2nc3cccnc3n2Cc2ccc(F)cc2)cc1, the survival was inactive: 79%. COc1ccc(-c2nn(-c3ccc(F)cc3)c3c2cnc2cc4c(cc23)OCO4)cc1 was tested, and the survival was inactive: 71%. For CCc1ccccc1NC(=O)CSc1nc2n[nH]c(C)c2c(=N)n1-c1cccc(C)c1, the survival was inactive: 78%. For COc1ccccc1CNc1ccc(-c2nc(-c3ccccc3C)no2)cc1[N+](=O)[O-], the survival was inactive: 82%. For Cn1c2c(c(=O)n(C)c1=O)C(c1ccccc1[N+](=O)[O-])CC(=O)N2 (stereo unspecified), the survival was inactive: 88%. With Cc1cc(C)cc(NC(=O)C2CCN(C(=O)c3cnn(-c4ccccc4)c3-n3cccc3)CC2)c1 the survival was inactive: 83%. For CC1CCn2c(nc3cc(C(=O)NCc4ccc(F)cc4)ccc32)C1 (stereo unspecified), the survival was inactive: 82%. With CCOc1nc(NC(=O)NS(=O)(=O)Oc2cccc(Cl)c2)nc(-c2ccccc2)n1 the survival was inactive: 70%. O=C(Nc1ccc(F)c(F)c1)c1cc(S(=O)(=O)NCc2ccc3c(c2)OCO3)ccc1F was tested, and the survival was inactive: 98%. With CCCCC(=O)Nc1nnc(SCc2cc(=O)n3cc(C)ccc3n2)s1 the survival was inactive: 63%. CN1C(=S)NC(C)(C)CC1(C)O (stereo unspecified) was tested, and the survival was inactive: 102%. For CCOC(=O)c1nn2c(C(F)(F)F)cc(-c3ccc(C)cc3)nc2c1Cl, the survival was inactive: 79%. In the case of Cc1ccc(CNC(=O)CSc2nc(=O)n(Cc3ccco3)c3c2CCC3)cc1, the survival is reported as inactive: 74%. For COc1ccc(-c2c(C#N)c(SCC(=O)Nc3ccc(C)cc3)nc(C)c2C(=O)Nc2ccccc2)cc1, the survival was inactive: 94%. O=C(O)CCSc1nnnn1-c1ccccc1 was tested, and the survival was inactive: 114%. In the case of COc1cccc(CNC(=O)CN2CCCN(Cc3ccccc3)S2(=O)=O)c1, the survival is reported as inactive: 74%. In the case of Cc1ccn2c(Nc3ccc4c(c3)OCO4)c(-c3ccc(Cl)cc3)nc2c1, the survival is reported as inactive: 80%. For COc1ccc(C2=NC3(CCCCCC3)N(CC(=O)Nc3cccc(Cl)c3)C2=O)cc1, the survival was inactive: 81%. With CCOc1ccc(-n2nc3ccc(NC(=O)c4cccc(F)c4)cc3n2)cc1 the survival was inactive: 96%. OCCCc1n[nH]c(=S)n1-c1ccccc1 was tested, and the survival was inactive: 103%. CCSc1nc2c([nH]c3ccccc32)c(=O)n1-c1cccc(OC)c1 was tested, and the survival was inactive: 75%. COc1cccc(NC(=O)Cn2c(=O)ccc3cc(S(=O)(=O)N4CCC(C)CC4)ccc32)c1 was tested, and the survival was inactive: 73%. COc1ccc(-c2csc(NCCCN(C)C)n2)cc1 was tested, and the survival was inactive: 103%. CCOc1ccc(-c2nnc(SCC(=O)NC(C)CC)nc2-c2ccc(OCC)c(OC)c2)cc1OC (stereo unspecified) was tested, and the survival was inactive: 60%. COc1ccc(-c2nc3ccccc3o2)cc1NC(=O)c1ccc(-c2ccc(Br)cc2)o1 was tested, and the survival was inactive: 73%. For COc1cc(C(=O)Nc2cccc(OCc3cc(=O)n4cc(C)sc4n3)c2)cc(OC)c1OC, the survival was inactive: 90%. In the case of CC(=O)Nc1nonc1-c1nnc(SCC(=O)Nc2cccc(C)c2C)n1-c1ccccc1, the survival is reported as inactive: 86%. With COc1ccc(Cn2cc(C(=O)c3ccc(F)cc3)c(=O)c3cc4c(cc32)OCCO4)cc1 the survival was inactive: 83%. Cc1nn(C)c(C)c1CCNC(=O)Nc1cccc(Cl)c1C was tested, and the survival was inactive: 63%. With CCCCNc1ccc(-c2nc(-c3ccncc3)no2)cc1[N+](=O)[O-] the survival was inactive: 68%. CCCCc1nn2c(=O)cc(COC(=O)c3ccco3)nc2s1 was tested, and the survival was inactive: 73%. For COc1ccc(-c2nc(CCNC(=O)c3c(F)cccc3Cl)cs2)cc1, the survival was inactive: 121%. In the case of CC1CCN(C(=O)Cn2cc(SCC(=O)Nc3ccccc3C(F)(F)F)c3ccccc32)CC1, the survival is reported as inactive: 105%. With CCN(CC)C(=O)CSc1nc(C)cc(C)n1 the survival was inactive: 118%. With Cc1cccc(NC(=O)C2CCCN(S(=O)(=O)c3c(C)n[nH]c3C)C2)c1 (stereo unspecified) the survival was inactive: 140%. For CCC(C(=O)Nc1ccccc1)n1nc(-c2cc(C)ccc2C)ccc1=O (stereo unspecified), the survival was inactive: 74%. With Cc1ccccc1Nc1c(-c2cccnc2)nc2cccc(C)n12 the survival was inactive: 90%.
